Source: PubChem BioAssay AID1159614 (National Center for Advancing Translational Sciences (NCATS), 2016)
Hit rate of the full screen: of about 45,000 compounds, about 65 (0.1%) were called active. The call rests on the fitted dose curve; in most records, active means well fitted activation curve with a large enough effect; inconclusive means small, poorly fitted or top-dose-only effect; inactive means no such curve, though single readings can be large or run the other way. Some of the results follow.

Biological target: Galactocerebrosidase (Homo sapiens) (UniProt P54803)
Assay: A Novel Cell-Based Assay to Identify Small Molecules for B -Galactocerebrosidase; further: 0% is about no effect; nearly all actives have a fitted effect of over 65% in size
Conditions: 145M-Twi-hGALC-G270D cells (Twitcher mouse brain line with human GALC G270D), HMU-beta-Gal fluorescence, 48 h; series mostly up to 57.5 µM; activation: at the top concentration
Method in brief: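 Mutant human GALC (G270D), stably expressed in a Twitcher mouse brain cell line lacking endogenous GALC, is measured in live-treated cells via 6-hexadecanoylamino-4-methylumbelliferyl-β-galactoside hydrolysis (0.1 mM final, pH 5.2) with fluorescent detection.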

Chain of UniProt P54803 (P54803 whole entry, looked up): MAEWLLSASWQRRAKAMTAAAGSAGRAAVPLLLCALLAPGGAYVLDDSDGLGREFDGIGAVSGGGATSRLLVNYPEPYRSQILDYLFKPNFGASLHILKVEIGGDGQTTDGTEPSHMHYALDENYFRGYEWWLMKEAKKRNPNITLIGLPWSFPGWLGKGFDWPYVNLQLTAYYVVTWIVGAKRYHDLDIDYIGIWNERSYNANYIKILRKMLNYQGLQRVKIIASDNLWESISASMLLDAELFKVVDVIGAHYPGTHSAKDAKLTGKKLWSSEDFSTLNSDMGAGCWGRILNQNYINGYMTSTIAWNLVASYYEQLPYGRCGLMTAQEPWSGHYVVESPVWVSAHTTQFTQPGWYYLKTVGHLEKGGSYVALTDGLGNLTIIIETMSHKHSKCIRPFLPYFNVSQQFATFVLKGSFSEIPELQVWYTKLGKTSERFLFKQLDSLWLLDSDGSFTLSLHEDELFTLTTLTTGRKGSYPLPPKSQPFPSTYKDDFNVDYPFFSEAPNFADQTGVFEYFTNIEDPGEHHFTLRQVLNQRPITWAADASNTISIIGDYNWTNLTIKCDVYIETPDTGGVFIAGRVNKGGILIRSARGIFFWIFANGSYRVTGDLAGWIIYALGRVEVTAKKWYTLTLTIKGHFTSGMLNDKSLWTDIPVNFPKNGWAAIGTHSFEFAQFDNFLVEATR

activation, inactive:
CC(C)CC(=O)Nc1nc2nc(-c3ccccc3)cc(=O)n2[nH]1 -11.5%
CCCCOc1ccc(C2=NC(c3cccs3)=Nc3ccc(CC)cc3N2)cc1 -9.05%
Cc1cc(N2CCCCC2)nc2ccc(NC(=O)/C=C/c3ccc(OC(C)C)cc3)cc12 -20.3%
COc1cccc(NC(=O)CN2C(=O)CSc3ccc(S(=O)(=O)N4CCCC4)cc32)c1 -8.45%
Cc1ccc(CNC(=O)c2cccn2-c2nnc(N3CCCC3)s2)cc1 -12.8%
Cc1ccc2c(CC(=O)Nc3ccc(S(=O)(=O)N4CCCCC4C)cc3)coc2c1 (stereo not drawn) -19.5%
CCOc1ccccc1CNC(=O)c1ccc(N2Cc3ccccc3Oc3ncccc32)s1 -16.8%
COc1ccc(CNC(=O)CCCn2nc(C)c3sc4ccccc4c3c2=O)cc1OC -7.91%
Cc1ccc(N2C(=O)NC(NS(=O)(=O)c3ccccc3)(C(F)(F)F)C2=O)cc1C (stereo not drawn) 3.44%
CCOC(=O)c1ccc(O)c(O)c1 -10.9%
Cc1cccc(NC(=O)N2CCN(C(=O)c3nsc4ccccc34)CC2)c1C -6.82%
CCC1CCCCN1CCCNC(=O)CN1C(=O)c2cccnc2Oc2ccc(C)cc21 (stereo not drawn) -13.9%
O=C(Nc1ccc(Br)cc1F)C1CCN(c2nc3ccccc3[nH]2)CC1 3.37%
Clc1ccc2c(c1)-c1c(cnc3cc(-c4ccccc4)nn13)CO2 -15.5%
COC(=O)COc1ccc2oc(-c3ccc(OC)cc3)cc(=O)c2c1 0.0439%
COc1ccc(N2CCN(C(=O)c3cnn(-c4ccc(F)cc4)c3-n3cccc3)CC2)cc1 10.5%
CC1CN(C(=O)N2CCC(C(=O)N3CCN(c4ccccc4)CC3)CC2)c2cc(Cl)ccc2O1 (stereo not drawn) -1.66%
CCOc1ccc2nc(N3CCC(C(=O)Nc4ccccc4CC)CC3)sc2c1 -11.3%
CCOc1ccc(C(=O)Nc2nnc(S(=O)(=O)Nc3ccccc3)s2)cc1 -20.3%
CCOc1cc2[nH]c(=O)n(CCCCC(=O)N3CCN(c4ccc(OC)cc4)CC3)c(=O)c2cc1OCC -8.57%
O=C1CCCc2cc(S(=O)(=O)N3CCCC(C(=O)Nc4ccc(F)c(Cl)c4)C3)ccc2N1 (stereo not drawn) -38.8%
CSc1cccc(Nc2cc(C(=O)NCCc3ccc(Cl)cc3)c3ccccc3n2)c1 7.79%
O=C(Cn1c(=O)n(CCCS(=O)(=O)C2CCCCC2)c(=O)c2ccccc21)Nc1ccccc1C(F)(F)F -14.1%
COc1ccc(NC(=O)CCn2c(=O)c3cccn3c3cccnc32)cc1Cl -11.5%
Cc1ccc(S(=O)(=O)c2[nH]c(-c3ccccc3)nc2SCC(N)=O)cc1 -4.58%
Cc1oc2c(cc(NS(=O)(=O)c3ccc(C(C)C)cc3)c3ccccc32)c1C(=O)O -15.5%
CC(C)C(=O)N1c2nc(-c3ccco3)nn2C2(CCCCC2)[C@@H]2CCCC[C@@H]21 15.7%
CC(=O)Nc1ccc(S(=O)(=O)N2CCC(c3nnc(-c4ccc(C)cc4)o3)CC2)cc1 -13.6%
CCN(CC)C(=O)c1sc2c(c1C)c(=O)n(-c1ccc(Cl)c(Cl)c1)c(=O)n2Cc1cc(=O)n2ccccc2n1 -8.83%
COc1cccc(CNC(=O)Cn2c(=O)n3nc(-c4cccc(F)c4)nc3c3ccccc32)c1 1.15%
Cc1ccc(CCNc2ncnc3onc(-c4ccc(F)cc4)c23)cc1 -12.1%
CCOc1ccccc1NC(=O)C(CC)Sc1nc2ncccc2[nH]1 (stereo not drawn) 6.2%
Cc1ccc2oc3c(c(=O)c2c1)C(c1ccccc1F)N(CCCN(C)C)C3=O (stereo not drawn) -15%
O=C(NCc1ccc2c(c1)CCN2C(=O)c1ccccc1)c1ccccc1 0.26%
CCCSc1nnc2c(n1)OC(c1ccc(Br)s1)Nc1ccccc1-2 (stereo not drawn) -27%
COc1ccc(CNC(=O)C2=C(C)C(=O)OC23CCCCC3)cc1 -10.5%
COc1ccc(-n2ncc3c2ncn2nc(COc4ccc(Cl)cc4)nc32)cc1 -12.3%
COc1ccccc1CNS(=O)(=O)c1ccc2c(c1)CC(=O)N2C 23.5%
CCOC(=O)N1CCN(C(=O)c2c(C)nn(-c3cccc(C)c3)c2-n2cccc2)CC1 4.62%
COC(=O)c1sc2ncccc2c1-n1c(C)ccc1C -5.38%
Cc1ccc(C)c(N2CCN(C(=O)CCS(=O)(=O)c3cc4c(cc3Cl)NC(=O)CO4)CC2)c1 -35.7%
Cc1ccc(S(=O)(=O)N2CCc3cc(C(=O)Nc4ccc(C(F)(F)F)cc4)ccc32)cc1 -14%
Cc1cc(C(F)F)n2nc(C(=O)Nc3ccc(C(C)C)cc3)nc2n1 -11.1%
Cc1oc(-c2ccccc2Cl)nc1CS(=O)CC(=O)NCc1ccc(Cl)cc1 (stereo not drawn) -10.7%
COc1ccc(CCNC(=O)CSc2cn(CCNC(=O)c3cccc(C(F)(F)F)c3)c3ccccc23)cc1OC 0.374%
Cc1ccc(-n2ncc3c(N4CCC(C(N)=O)CC4)ncnc32)cc1 -4.37%
O=C(Cn1ncc2ccsc2c1=O)N1CCN(c2ccc(F)cc2)CC1 -15.2%
CCC1CN(C(=O)Nc2cccc3c2CCCC3)c2cc(Cl)ccc2O1 (stereo not drawn) -10.2%
CCOc1ccc(-c2cn(-c3ccc(C)cc3)c(SCC(=O)Nc3ccc(C)cc3)n2)cc1 -10.3%
O=C(Cn1c2ncccc2c(=O)n1-c1ccccc1)NCc1ccccc1Cl -19%
COc1cccc(CNC(=O)C(C)n2ncn3cccc3c2=O)c1OC (stereo not drawn) -9.26%
Cc1ccc(NC(=O)Cc2coc3ccc(C(C)C)cc23)c(C)c1 -21.3%
O=S(=O)(Nc1nc2ccccc2nc1Nc1ccccc1Br)c1ccccc1 -25.1%
Fc1ccc(-c2ccc(CNCCSc3nnnn3-c3ccccc3)o2)cc1 -11.1%
Cc1ccc(COc2ccc(-c3cc(C(F)(F)F)n4nc(C)cc4n3)cc2)cc1 9.63%
O=C(CSc1nc2c([nH]c3ccccc32)c(=O)n1-c1cccc(Cl)c1)NCC1CCCO1 (stereo not drawn) -25.7%
COc1ccc(CNS(=O)(=O)c2cc3c4c(c2)CCN4C(=O)CC3)cc1 -0.723%
Cc1ccc(NC(=O)CSc2nccn2Cc2ccco2)cc1Cl -7.26%
O=c1ccc2cc(S(=O)(=O)NCc3ccc(Br)cc3)ccc2[nH]1 -8.42%
COc1cccc(NC(=O)CSCc2cc(=O)c3ccc(C)c(C)c3[nH]2)c1 -6.44%
CCC(=O)N1CCc2cc(S(=O)(=O)NC(CC(C)C)C(=O)NCCc3cccc(C)c3)ccc21 (stereo not drawn) -9.65%
COc1ccc(OC)c(CNS(=O)(=O)c2ccc3[nH]c4c(c3c2)CCCCC4)c1 -39.7%
Cn1c(=O)c2c(n3c4ccccc4nc13)NC(=O)CC2c1cccc(F)c1 (stereo not drawn) -5.42%
O=C(CCCCn1c(=O)c2ccccc2n(Cc2ccccc2Cl)c1=O)NCc1ccc2c(c1)OCO2 -6.67%
CCNc1ccc(-c2nc(-c3ccccn3)no2)cc1[N+](=O)[O-] 0.338%
COc1ccc(-c2onc(C)c2C)cc1S(=O)(=O)NCC(C)c1ccccc1 (stereo not drawn) -1.58%
Cc1cc(NC(=O)COCc2cc(-c3ccc(F)cc3)on2)ccc1Br -11.8%
CC(C)Oc1cccc(C(=O)Nc2ccc3oc(-c4cccc(Cl)c4)nc3c2)c1 -10.1%
CCOc1ccc(CNC(=O)c2ccc3nc(CC)c(CC)nc3c2)cc1 -21.8%
COc1cccc(N2CCN(C(=O)CCCn3c(=O)[nH]c4ccc(Br)cc4c3=O)CC2)c1 -11.6%
Cc1ccc(Nc2c(-c3ccc(Cl)cc3)nc3sccn23)c(C)c1 -6.24%
Cc1ccc(C)c(NC(=O)N2CCC(CN3CCOCC3)CC2)c1 -2.35%
COC(=O)C1=C(C)NC(C)=C(C(=O)OCC(C)C)C1c1ccccc1[N+](=O)[O-] (stereo not drawn) -12.7%
CCOc1ccc(CCNS(=O)(=O)c2c(C)nc3scc(C)n3c2=O)cc1OCC -15.9%
CCCn1c2ccccc2c2cnn(CC(=O)N3CCN(c4ccccc4F)CC3)c(=O)c21 -3.23%
CC(=O)N1CCCc2cc(S(=O)(=O)NCc3cccc(C)c3)ccc21 -16.7%
CCn1c(=O)c2cc(C(=O)NCCCOC)sc2c2ccccc21 -0.0299%
Cc1cc(C)n(-c2nc3ccccc3nc2Nc2ccc(Cl)cc2Cl)n1 3.83%
O=c1c2cnn(-c3ccc(F)cc3)c2ncn1Cc1cccc(Cl)c1 -12%
CCCN(CCC)C(=O)Cn1nnc2sc(-c3ccccc3)cc2c1=O -7.58%
COc1ccc(NC(=O)Cn2c(=O)n(-c3ccccc3)c(=O)c3c4c(sc32)CCCC4)c(OC)c1 -1.4%
Cc1ccc(CNC(=O)c2nc(SCc3ccc(F)cc3)ncc2Cl)cc1 -17.3%
CC(C)Oc1ccc(CNS(=O)(=O)c2ccc3c(c2)C(C)(C)C(=O)N3C)cc1 -11.6%
Cc1ccc(NC(=O)CSc2ncc(S(=O)(=O)c3ccc(C(C)C)cc3)c(=O)[nH]2)cc1C 7.44%
Cc1ccc(C(=O)c2cn(Cc3cccc(C)c3)c3nc(C)ccc3c2=O)cc1 -9.71%
Cc1nn2c(=O)cc(COC(=O)c3cccc(NC(=O)COc4ccccc4Cl)c3)nc2s1 -4.56%
COC(=O)c1cc(S(=O)(=O)N2CCN(c3ccc(OC)cc3)CC2)c[nH]1 -0.224%
COc1ccc(S(=O)(=O)n2nc(C)c(S(=O)(=O)N3CCCCCC3)c2C)cc1 -2.43%
Cc1cc(C)n2c(Nc3ccc4c(c3)OCCO4)c(-c3ccc(Cl)cc3)nc2n1 -6.39%
O=C(CCNS(=O)(=O)c1ccc2c(c1)CCCC(=O)N2)NCc1ccccc1Cl -11.8%
CCC(=O)N1CCc2cc(CNC(=O)Nc3ccccc3Cl)ccc21 -9.93%
CCOc1cc(C#N)c(NC(=O)c2cccc(S(=O)(=O)N3CCOCC3)c2)cc1OCC -13.3%
COc1cccc(NC(=O)CN(C)S(=O)(=O)c2cccs2)c1 -5.56%
CC(=O)Nc1ccc(OCCOCCOc2ccc(NC(C)=O)cc2)cc1 -8.52%
COc1cc(CNC(=O)CSCc2nc3cccnc3n2C2CCCCC2)cc(OC)c1OC 13.7%
Cc1ccc(C)c(NC(=O)CCc2nc(-c3ccc(C(C)(C)C)cc3)no2)c1 -3.23%
Cc1ccc(C(=O)Nc2ccc3c(c2)N(C)C(=O)c2ccccc2S3)cc1 -9.31%
CCc1ccc(NC(=O)c2cc(S(=O)(=O)N3CCCC3)ccc2F)cc1 -8.68%
